# Test results from PubChem BioAssay (NCATS).
# The inconclusive results got no clear call from the source; some entries with a clear call stand among them for comparison. Potencies of inconclusive entries are left out as doubtful fits. Activity calls are given as the source filed them. Calls come from the whole dose curve; as a rule, active = well fitted inhibition curve with a large enough effect; inconclusive = small, poorly fitted or top-dose-only effect; inactive = no such curve, though single readings can be large or run the other way.
# Assay: BET inhibitor-based combinations targeting novel dependencies in MECOM-rearranged (r) AML: OCI-AML3 cell line (AID 2202232); note: nearly all actives have a fitted effect of over 35% in size
# Conditions: CellTiter-Glo luminescence, 48 h; Potency: OCI-AML3 viability; series mostly up to 46 µM
# Outline: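 A 48 hr incubation preceded viability reading by CellTiter-Glo, with 15 min room-temperature development. Dose series had 11 points; normalization used DMSO and empty wells; AUC was computed and mean-centered per line as Z-AUC.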
# Potency is the fitted concentration of half-maximal effect; tags give direction and shape of the fitted curve.
row,Compound,Potency
1,NC(=O)c1ccc(N(C(N)=O)c2c(F)cccc2F)nc1-c1ccc(F)cc1F,"inconclusive [inhibitor, full curve, poor fit]"
2,CCN(CC)CCNc1ccc(C)c2sc3ccccc3c(=O)c12,active: 14.8 µM
3,CC1=C[C@@H]2[C@@H]([C@@H](O)C[C@@]3(C)[C@H]2C[C@@H](C)[C@]3(O)C(=O)CO)[C@@]2(C)Cc3cnn(-c4ccccc4)c3C=C12,active: 18.6 µM
4,CC(C)n1c(/C=C/[C@H](O)C[C@H](O)CC(=O)O)c(-c2ccc(F)cc2)c2ccccc21,active: 3.32 µM
5,[O-][n+]1cccc(-c2nc3c(Cl)cccc3cc2[C@@H](Nc2ncnc3cccnc23)C(F)(F)F)c1,active: 5.25 µM
6,COC(=O)C1=C(C)NC(c2ncc(F)cc2F)=N[C@H]1c1ccc(F)cc1Cl,"inconclusive [inhibitor, partial curve]"
7,CC1=C(CC(=O)O)c2cc(F)ccc2C1=Cc1ccc(S(C)=O)cc1 (centres undefined),"inconclusive [inhibitor, partial curve, poor fit]"
8,C[C@@H](Oc1cc(-n2cnc3ccc(CN4CCN(C)CC4)cc32)sc1C(N)=O)c1ccccc1C(F)(F)F,active: 0.0468 µM
9,COc1cc2ncn(-c3cc(OCc4ccccc4S(C)(=O)=O)c(C#N)s3)c2cc1OC,"inconclusive [inhibitor, full curve, poor fit]"
10,O=C(Nc1ccc(OC(F)(F)Cl)cc1)c1cnc(N2CC[C@@H](O)C2)c(-c2ccn[nH]2)c1,"inconclusive [inhibitor, partial curve, poor fit]"
11,Cc1ccc(NC(=O)c2ccc(CN3CCNCC3)cc2)cc1Nc1nccc(-c2cccnc2)n1,"inconclusive [inhibitor, single point]"
12,COc1cc2nccc(Oc3ccc(NC(=O)C4(C(=O)Nc5ccc(F)cc5)CC4)cc3)c2cc1OC,"inconclusive [inhibitor, partial curve]"
13,CCOc1ccc(-n2c([C@@H](C)N(Cc3cccnc3)C(=O)Cc3ccc(F)c(C(F)(F)F)c3)nc3ncccc3c2=O)cc1,inactive
14,CC1=C2C[C@H]3[C@@H](CC[C@@H]4C[C@H](NS(C)(=O)=O)CC[C@@]43C)[C@@H]2CC[C@@]2(C1)O[C@@H]1C[C@H](C)CN[C@H]1[C@H]2C,"inconclusive [inhibitor, partial curve]"
15,COc1ccc(-c2cc3nccn3c(Nc3ncccc3C(N)=O)n2)cc1OC,"inconclusive [inhibitor, partial curve]"
16,NC1=N[C@H]2[C@H](CS[C@H]2CCCCC(=O)O)N1,inactive
17,CC(C)(C)Sc1c(CC(C)(C)C(=O)O)n(Cc2ccc(Cl)cc2)c2ccc(OCc3ccc4ccccc4n3)cc12,"inconclusive [inhibitor, single point]"
18,O=C(Nc1cccc(Br)c1)c1cccc(S(=O)(=O)N2CCCCCC2)c1,"inconclusive [inhibitor, partial curve]"
19,COc1ccccc1C(=O)Nc1cc2c(cc1N1CCNC[C@H]1C)n(C)c(=O)n2C,"inconclusive [inhibitor, partial curve]"
20,O=C1c2ccccc2-c2n[nH]c3cccc1c23,active: 4.68 µM

row,Compound,Potency
1,NC1CCC(N[C@@H]2C[C@H]2c2ccccc2)CC1 (some centres undefined),"inconclusive [inhibitor, partial curve]"
2,O=C1C[C@@H](c2ccc(O)cc2)Oc2cc(O)cc(O)c21,inactive
3,CN(C)C(=O)COC(=O)Cc1ccc(OC(=O)c2ccc(N=C(N)N)cc2)cc1,inactive
4,CNC(=O)[C@H](Cc1ccccc1)NC(=O)[C@H](CC(C)C)[C@H](CSc1cccs1)C(=O)NO,"inconclusive [inhibitor, partial curve, poor fit]"
5,C=CC(=O)N1CC[C@@H](Oc2nc(Nc3ccc(N4CCC(N5CCN(C)CC5)CC4)cc3)c(C(N)=O)nc2CC)C1,active: 4.56 µM
6,Cc1ccc(NS(=O)(=O)c2cccc(C#N)c2)c2[nH]cc(C#N)c12,active: 1.18 µM
7,CC#Cc1cncc(-c2ccc3c(c2)[C@@]2(N=C(C)C(N)=N2)C2(CCC(OC)CC2)C3)c1 (some centres undefined),"inconclusive [inhibitor, partial curve, poor fit]"
8,NCCCCNCCCN,"inconclusive [inhibitor, full curve]"
9,C[C@H](NC(=O)/C(C#N)=C/c1cccc(Br)n1)c1ccccc1,active: 4.68 µM
10,Cn1cc(-c2cc(Oc3cc(F)c(NC(=O)C4(C(=O)Nc5ccccc5)CC4)cc3F)ccn2)cn1,"inconclusive [inhibitor, single point]"
11,C#Cc1cccc(Nc2ncnc3cc(OCCOC)c(OCCO)cc23)c1,"inconclusive [inhibitor, partial curve]"
12,Cc1[nH]c(/C=C2\C(=O)Nc3ccc(S(=O)(=O)Cc4c(Cl)cccc4Cl)cc32)c(C)c1C(=O)N1CCC[C@@H]1CN1CCCC1,"inconclusive [inhibitor, full curve, poor fit]"
13,COC(=O)C1C2CC3c4[nH]c5cc(OC)ccc5c4CCN3CC2CC(OC(=O)c2cc(OC)c(OC)c(OC)c2)C1OC (centres undefined),"inconclusive [inhibitor, partial curve]"
14,CCN1C(=O)CNc2ncc(-c3ccc(-c4ncn[nH]4)nc3C)nc21,"inconclusive [inhibitor, partial curve]"
15,CCc1cccc(CC)c1NC(=O)N1Cc2[nH]nc(NC(=O)c3ccc(N4CCN(C)CC4)cc3)c2C1,"inconclusive [inhibitor, partial curve, poor fit]"
16,CC(C)(Oc1ccc(C2CC2(Cl)Cl)cc1)C(=O)O (centres undefined),"inconclusive [inhibitor, partial curve, poor fit]"
17,CN1CCN(C2=Nc3cc(Cl)ccc3Nc3ccccc32)CC1,inactive
18,Cc1c(-c2cnccn2)ssc1=S,active: 2.95 µM
19,O=c1sn(-c2cccc3ccccc23)c(=O)n1Cc1ccccc1,"inconclusive [inhibitor, full curve, poor fit]"
